Experimental findings from article PMC12136788 are described below.

The list shows a part of the results.

The labels stand for the following.
B1: chr10:123166816:123166917:+|3pUTR|ENSG00000154473|unk|total|mutant (ssRNA)
RNA: GGGAGUUCUACAGUCCGACGAUCAAAAACUUAAAGGUAUAUCCGCAGGUCCGCCUUUGUUCUGUGGGAGAUCCAGGCCUUGUCCGAAGGACCAAGGCCAGAAUGCCCAGUUCCGCCUCCGCAUUCAAACCCUUCAUUGUUUUUCAACAGAGGAUUGAGCAUCA
B2: chr12:52170242:52170446:-|3pUTR|ENSG00000167767|msi1|FALSE|unique (ssRNA)
RNA: GGGAGUUCUACAGUCCGACGAUCUGGCCCUCCCCUCCUUGGCAUUCAUGGGGGAGCCCAGGAACCCCCCACACCUAUGGGGUUAGAGCUCCUCCUUUCUUCUCACUCCUUCCCCUUCCUCCCUCCAUGCCCACUCCCCCUGCCCAACAGAGGAUUGAGCAUCA
B3: chr5:115137525:115137627:-|CDS|ENSG00000152503|unk|total|mutant (ssRNA)
RNA: GGGAGUUCUACAGUCCGACGAUCUUCCGCAGAAGAGGCUAUUCUUUGUUUUAUCUCCGUGUAAUGGAGAUACUGUUUUUUCUCCGUGUAAUGGAGAGAGGGCUAAAGAAGAAGCAAUUACACAUUUUGAAAAGCUCUUUGAAGCAACAGAGGAUUGAGCAUCA
B4: ENSG00000075856:stop:overlap|stop_codon|ENSG00000075856|stop_codon|NA|stop_codon (ssRNA)
RNA: GGGAGUUCUACAGUCCGACGAUCGCAGCGGGCAUCUUCCAGUCUUUCAGGUCCUCGGGUCCCCAUGUCCUGGCCCGCCUCCCUAGUCCUCGGCGGCGAUAAAGCCGCCAAGGCUGCAAACCCGCUUUUCGUGACAGUAGCUCCCAACAGAGGAUUGAGCAUCA
B5: chr10:73251842:73251943:-|CDS|ENSG00000182180|msi1|total|mutant (ssRNA)
RNA: GGGAGUUCUACAGUCCGACGAUCUCGGCCGUUCUACCGCAUUGUGGCUGCUCACAACAAGUGUCCCAGGGAUGGCCGUUUCGCCGAGCAGCUGGGCUCCUAUGAUCCAUUGCCCAACAGUCAUGGAGAAAAACUCGUUGCCCUCAACAGAGGAUUGAGCAUCA
B6: chr16:3727831:3727932:-|CDS|ENSG00000005339|unk|total|mutant (ssRNA)
RNA: GGGAGUUCUACAGUCCGACGAUCCGUCUCACCCCAGACUGGUUCCCCCCACCCCGGACUCGCAGUCACCAUGGCCAGCUCCACCGAUCAGGGACACUUGGGGAACCCCGAACAGAGUGCAAUGCUCCCCCAGCUGAACACCCCCAACAGAGGAUUGAGCAUCA
B7: ENSG00000107863:be:win_2851|CDS|ENSG00000107863|bound_else_gene|NA|bound_elsewhere_windowed (ssRNA)
RNA: GGGAGUUCUACAGUCCGACGAUCGUUGGUGGAAGUAUUCGGCCAUGGAAACAGAUGUAUGUUGUCCUUCGGGGUCAUUCACUUUACCUGUACAAAGAUAAAAGAGAGCAGACGACUCCGUCUGAGGAAGAGCAGCCCAUCAGUCAACAGAGGAUUGAGCAUCA
B8: ENSG00000107863:be:win_3551|CDS|ENSG00000107863|bound_else_gene|NA|bound_elsewhere_windowed (ssRNA)
RNA: GGGAGUUCUACAGUCCGACGAUCGAGUUCCUGGAAAUAAUGCAGCCAUCUCAAGUAUGCAAGAAGAACUCAACAAGGGAAUGGCUGAUAUUGAUAUACAAGAUGAUAAAUGGCGAGAUUUGAAUGUGAUAAGCAGUUUACUAACAACAGAGGAUUGAGCAUCA
B9: ENSG00000107863:be:win_5751|CDS|ENSG00000107863|bound_else_gene|NA|bound_elsewhere_windowed (ssRNA)
RNA: GGGAGUUCUACAGUCCGACGAUCACCUGACCAAAUAAACGGAGAAAGCUUCCAGAACGUGAGCAAAAAUGCUAGUUCUGCAGCGAAUGCCCAACCUCAUAAACUGUCUGAAACCCCAGGCAGUAAAGCAGAGUUUCAUCCCUGCAACAGAGGAUUGAGCAUCA
B10: chr4:174259701:174259819:-|CDS|ENSG00000164117|unk|total|mutant (ssRNA)
RNA: GGGAGUUCUACAGUCCGACGAUCAAAUCCACUUGGGGUCACUGUUCCAUAUACAAUAAGAACCCACCUUCCGGAUUUUCUUUCCGAAAAUUGUAUAUGCAGCUGGAUGAAGGCAGCCUCACCUUUAAUGCCAACCCAGAUGAGCAACAGAGGAUUGAGCAUCA
B11: chr11:123942869:123943838:-|CDS|ENSG00000181499|control|control|control (ssRNA)
RNA: GGGAGUUCUACAGUCCGACGAUCCCGCUAUGAGACCCUGAUGAAUGGCCAUGUCUGUUCCCAACUAGUGCUGGCCUCCUGGCUAGCUGGAUUCCUCUGGGUCCUUUGCCCCACUGUCCUCAUGGCCAGCCUGCCUUUCUGUGGCAACAGAGGAUUGAGCAUCA
B12: chr5:136976780:136976881:-|3pUTR|ENSG00000152377|msi1|total|mutant (ssRNA)
RNA: GGGAGUUCUACAGUCCGACGAUCCUUAAAUCCGCAUGUUCCAAUCCAGUCGGCAUUGCCUGAAUACAGCCGCAUCAUACCUACCGUUGGUCUCCGAUAAGAAAUGAACUACUUGAUACCGCAAAGUCCUUUGGCUUCGUAAAUCAACAGAGGAUUGAGCAUCA
B13: chr6:52498635:52498743:-|3pUTR|ENSG00000065308|msi1|total|mutant (ssRNA)
RNA: GGGAGUUCUACAGUCCGACGAUCAAAGGGACACGGAUUGUGACAGUUUCACCCCAUUUGUUUCUAACCCCGCUGCCCAGGAUCCGGGUCUGUGGUGUGUUCUGUUUUGUUUUUGGUUUCUCCCUUGUGUCAGUUCUCUUCUGGCAACAGAGGAUUGAGCAUCA
B14: ENSG00000101574:stop:overlap|stop_codon|ENSG00000101574|stop_codon|NA|stop_codon (ssRNA)
RNA: GGGAGUUCUACAGUCCGACGAUCAUCAAGCCAGAUGGGGAAUAUUUGGAGUUGUUUGCUCGAAAUUUACAGCCAGGUUGGACUAGUUGGGGCAAUGAAGUUCUCAAAUUUCAGCAUGUGGAUUAUUUUAUUGCUGUGGAGUCUCAACAGAGGAUUGAGCAUCA

The target of the assay is MSI1 full-length (mouse, UniProt Q61474 1-362). As to the kind of experiment: nsRBNS (natural sequence RNA bind-n-seq); RBNS binding buffer (assumed for nsRBNS): 25 mM Tris pH 7.5, 150 mM KCl, 3 mM MgCl2, 0.01% Triton X-100, 500 ug/ml BSA, 20 U/ml SUPERase-In, 4 C; UNK is unkempt and MSI1 is Musashi-1; names of the RNAs are library labels; protein concentration not given here; high values mean tight binding.
Chain of UniProt Q61474 (Q61474 whole entry): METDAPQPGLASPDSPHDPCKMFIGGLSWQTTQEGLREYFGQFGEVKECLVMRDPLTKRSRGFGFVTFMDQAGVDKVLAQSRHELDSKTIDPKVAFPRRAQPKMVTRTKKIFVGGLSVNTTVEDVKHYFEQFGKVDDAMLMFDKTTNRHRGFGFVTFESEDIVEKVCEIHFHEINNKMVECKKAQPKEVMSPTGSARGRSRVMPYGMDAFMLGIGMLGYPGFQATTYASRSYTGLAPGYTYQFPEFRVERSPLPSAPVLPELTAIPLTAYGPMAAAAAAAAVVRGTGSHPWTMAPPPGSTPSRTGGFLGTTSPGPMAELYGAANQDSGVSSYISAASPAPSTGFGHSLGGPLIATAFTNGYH
For the molecule B1, the binding signal turned out to be 0.272 enrichment R. Consider B2, for which the binding signal is 1.08 enrichment R. Molecule B3 returned a binding signal of 0.258 enrichment R. The figure for B4 is 0.223 enrichment R; for B5 it is 0.313 enrichment R. B6 came in with a binding signal of 0.522 enrichment R. Consider B7, for which the binding signal is 0.427 enrichment R.

As to B8, the binding signal worked out at 0.7 enrichment R. On to B9, for which the binding signal amounted to 0.256 enrichment R. B10 registered a binding signal of 0.29 enrichment R.

On to B11, for which the binding signal was 0.477 enrichment R. To B12 belongs 0.478 enrichment R. B13 yielded a binding signal of 0.496 enrichment R. B14: the binding signal turned out to be 0.382 enrichment R.
